Experimental data taken from the supplement of paper PMC4967469.
pIC50: −log10 of the molar value. IC50 is the fitted dose that halves viability relative to control wells, and lower means more sensitive; a fit beyond the top or the lowest dose is shown as a bound at that dose. The AUC spans the tested range (256-fold, ending at the top dose) of the same fit; the more sensitive the line, the further below 1. For some of these results: A top dose marked as inferred is not printed in the source and was worked back from the curve model. For some of these results: Where an entry number is given, a second screen of the drug exists; the two often differ.

Columns and labels:
Assay in all cases: Viability of human cancer cell lines after 72 h of drug (GDSC screen)
HG-5-88-01 = compound: COc1cc(N2CCC(C(N)=O)CC2)ccc1Nc1nc(N)c(Cl)c(Nc2ccccc2S(=O)(=O)C(C)C)n1 [HG-5-88-01]; conditions: top dose 10 µM; top dose inferred
Description: (§1)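 Human cancer cell lines in 384-well plates, medium with 10% serum, drug for 72 h over a 256-fold dose range (nine 2-fold or five 4-fold steps up to the top dose). Adherent lines were fixed and stained with the nucleic acid dye Syto60, suspension lines read with resazurin; signal relative to control wells, capped at 0 and 100%. One two-parameter sigmoid per drug and line, fitted in a mixed model over all curves with the slope shared within a line.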

Elesclomol = compound: CN(NC(=O)CC(=O)NN(C)C(=S)c1ccccc1)C(=S)c1ccccc1 [Elesclomol]; conditions: top dose 0.2 µM; top dose inferred
Description: as §1

Masitinib = compound: Cc1ccc(NC(=O)c2ccc(CN3CCN(C)CC3)cc2)cc1Nc1nc(-c2cccnc2)cs1 [Masitinib]; conditions: top dose 20 µM
Description: as §1

BX-912 = compound: O=C(Nc1cccc(Nc2ncc(Br)c(NCCc3cnc[nH]3)n2)c1)N1CCCC1 [BX-912]; conditions: top dose 10.24 µM; top dose inferred
Description: as §1

OSI-930 = compound: O=C(Nc1ccc(OC(F)(F)F)cc1)c1sccc1NCc1ccnc2ccccc12 [OSI-930]; conditions: top dose 10.24 µM
Description: as §1

VNLG/124 = compound: CCCC(=O)OCc1ccc(OC(=O)/C=C(C)/C=C/C=C(C)/C=C/C2=C(C)CCCC2(C)C)cc1 [VNLG/124]; conditions: top dose 5.12 µM; top dose inferred
Description: as §1

NSC-87877 = compound: O=S(=O)(O)c1ccc2cc(N=Nc3cc(S(=O)(=O)O)c4cccnc4c3O)ccc2c1 [NSC-87877]; conditions: top dose 16 µM; top dose inferred
Description: as §1

Bleomycin = compound: Cc1c(N)nc([C@H](CC(N)=O)NC[C@H](N)C(N)=O)nc1C(=O)N[C@H](C(=O)N[C@H](C)[C@@H](O)[C@H](C)C(=O)N[C@H](C(=O)NCCc1nc(-c2nc(C(=O)NCCC[S+](C)C)cs2)cs1)[C@@H](C)O)[C@@H](OC1OC(CO)C(O)C(O)C1OC1OC(CO)C(O)C(OC(N)=O)C1O)c1cnc[nH]1 [Bleomycin]
Description: as §1

LAQ824 = compound: O=C(/C=C/c1ccc(CN(CCO)CCc2c[nH]c3ccccc23)cc1)NO [LAQ824]; conditions: top dose 1.024 µM; top dose inferred
Description: as §1

Tamoxifen = compound: CC/C(=C(\c1ccccc1)c1ccc(OCCN(C)C)cc1)c1ccccc1 [Tamoxifen]; conditions: top dose 5 µM
Description: as §1

[1] = top dose 50 µM, screen: GDSC drug entry 1378, top dose inferred
[2] = top dose 64 µM, screen: GDSC drug entry 190

Cell Line	AUC (HG-5-88-01)	pIC50 (HG-5-88-01)	AUC (Elesclomol)	pIC50 (Elesclomol)	AUC (Masitinib)	pIC50 (Masitinib)	AUC (BX-912)	pIC50 (BX-912)	AUC (OSI-930)	pIC50 (OSI-930)	AUC (VNLG/124)	pIC50 (VNLG/124)	AUC (NSC-87877)	pIC50 (NSC-87877)	AUC (Bleomycin; [1])	pIC50 (Bleomycin; [1])	AUC (LAQ824)	pIC50 (LAQ824)	AUC (Bleomycin; [2])	pIC50 (Bleomycin; [2])	AUC (Tamoxifen)	pIC50 (Tamoxifen)
A549 (lung adenocarcinoma, adherent)	0.904	< 5.00	0.422	8.13																		
HCT-116 (large intestine, adherent)	0.923	< 5.00	0.695	7.37	0.757	5.18	0.769	5.44	0.736	5.54	0.987	< 5.29	0.969	< 4.80								
Jurkat (T-cell leukaemia, suspension)	0.972	< 5.00													0.559	5.36						
K-562 (chronic myeloid leukaemia, suspension)	0.986	< 5.00									0.982	< 5.29	0.949	< 4.80								
OVCAR-3 (ovary, adherent)	0.936	< 5.00			0.986	< 4.70	0.979	< 4.99	0.983	< 4.99	0.958	< 5.29	0.984	< 4.80	0.507	5.49	0.407	7.46	0.786	4.51		
SK-MEL-28 (melanoma, adherent)	0.962	< 5.00			0.897	< 4.70	0.972	< 4.99	0.983	< 4.99	0.982	< 5.29	0.965	< 4.80	0.945	< 4.30	0.742	6.51	0.97	< 4.19		
SW780 (bladder, adherent)			0.634		0.979	< 4.70	0.934	< 4.99	0.975	< 4.99	0.978	< 5.29	0.986	< 4.80	0.36	5.91	0.823	6.17	0.985	< 4.19	0.935	< 5.30
SW962 (urogenital system, adherent)			0.691	7.31	0.977	< 4.70	0.721	5.49	0.978	< 4.99	0.963	< 5.29	0.951	< 4.80	0.608	5.18	0.447	7.35	0.409	5.68	0.903	< 5.30
SW1417 (large intestine, adherent)			0.92	< 6.70	0.969	< 4.70	0.974	< 4.99	0.958	< 4.99	0.986	< 5.29	0.97	< 4.80	0.923	< 4.30	0.509	7.17	0.9	< 4.19	0.985	< 5.30
Saos-2 (osteosarcoma, adherent)			0.505	7.89	0.981	< 4.70	0.981	< 4.99	0.974	< 4.99	0.974	< 5.29	0.879	< 4.80	0.662	4.97	0.626	6.78	0.272	6.17	0.941	< 5.30
SiHa (cervix, adherent)			0.655	7.44	0.983	< 4.70	0.974	< 4.99	0.979	< 4.99	0.983	< 5.29	0.956	< 4.80	0.822	4.45	0.927	< 5.99	0.983	< 4.19	0.979	< 5.30
T-24 (bladder, adherent)	0.949	< 5.00			0.892	< 4.70	0.943	< 4.99	0.988	< 4.99	0.977	< 5.29	0.989	< 4.80	0.141	6.60	0.699	6.65	0.27	6.04		
T-T (oesophagus, adherent)			0.502	7.90	0.896	< 4.70	0.987	< 4.99	0.978	< 4.99	0.986	< 5.29	0.957	< 4.80	0.637	5.13	0.307	7.74	0.32	5.90	0.986	< 5.30
TE-6 (oesophagus, adherent)			0.788	6.98	0.892	< 4.70	0.944	< 4.99	0.959	< 4.99	0.98	< 5.29	0.978	< 4.80	0.927	< 4.30	0.537	7.09	0.671	4.88	0.979	< 5.30
TE-11 (oesophagus, adherent)			0.846	6.90	0.979	< 4.70	0.963	< 4.99	0.982	< 4.99	0.989	< 5.29	0.985	< 4.80	0.411	5.74	0.49	7.22	0.495	5.41	0.977	< 5.30
TE-15 (oesophagus, suspension)			0.927	< 6.70	0.897	< 4.70	0.879	< 4.99	0.938	< 4.99	0.918	< 5.29	0.985	< 4.80	0.83	4.43	0.433	7.39	0.49	5.43	0.968	< 5.30
TGBC11TKB (stomach, adherent)			0.967	< 6.70	0.974	< 4.70	0.99	< 4.99	0.967	< 4.99	0.973	< 5.29	0.978	< 4.80	0.862	4.46	0.583	6.98	0.492	5.42	0.979	< 5.30
U-698-M (B-cell leukaemia, suspension)			0.477	7.97	0.895	< 4.70	0.92	< 4.99	0.932	< 4.99	0.987	< 5.29	0.986	< 4.80	0.965	< 4.30	0.567	7.01	0.651	4.98	0.957	< 5.30
UACC-257 (melanoma, adherent)			0.577	7.67	0.9	< 4.70	0.955	< 4.99	0.982	< 4.99	0.975	< 5.29	0.973	< 4.80	0.843	4.31	0.463	7.31	0.905	< 4.19	0.97	< 5.30
UM-UC-3 (bladder, adherent)			0.643	7.52	0.936	< 4.70	0.885	5.00	0.894	< 4.99	0.988	< 5.29	0.988	< 4.80	0.368	5.86	0.625	6.86	0.296	5.95	0.985	< 5.30
UMC-11 (lung carcinoid, adherent)			0.973	< 6.70	0.821	5.00	0.919	< 4.99	0.985	< 4.99	0.985	< 5.29	0.991	< 4.80	0.926	< 4.30	0.57	7.01	0.989	< 4.19	0.99	< 5.30
WM793B (melanoma, adherent)			0.371	8.27	0.782	5.03	0.921	< 4.99	0.968	< 4.99	0.984	< 5.29	0.965	< 4.80	0.423	5.73	0.493	7.21	0.258	6.13	0.981	< 5.30
WSU-NHL (lymphoid neoplasm, suspension)			0.463	8.00	0.892	4.73	0.864	5.14	0.972	< 4.99	0.988	< 5.29	0.989	< 4.80	0.349	5.90	0.39	7.48	0.801	4.57	0.984	< 5.30
YAPC (pancreas, adherent)			0.737	7.15	0.959	< 4.70	0.902	< 4.99	0.979	< 4.99	0.985	< 5.29	0.983	< 4.80	0.672	4.97	0.894	< 5.99	0.978	< 4.19	0.972	< 5.30
YKG-1 (glioma, adherent)			0.516	7.86	0.88	< 4.70	0.913	< 4.99	0.922	< 4.99	0.926	< 5.29	0.924	< 4.80	0.408	5.76	0.455	7.32	0.413	5.64	0.98	< 5.30
YT (lymphoid neoplasm, suspension)			0.521	7.85	0.888	4.78	0.864	5.17	0.983	< 4.99	0.967	< 5.29	0.989	< 4.80	0.947	< 4.30	0.278	7.77	0.337		0.989	< 5.30
ZR-75-30 (breast, adherent)	0.966	< 5.00	0.428	8.14											0.968	< 4.30						
